{
  "source": "paper PMC4336329",
  "about": "(PLoS ONE, 2015)",
  "note": "The whole screen tested about 310,000 compounds, of which about 14,000 (4.5%) showed an effect of 50% or more. Effects have a minus sign here. The list shows a part of the results.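 Also: peak tail current of the secondary pulse compared with the same well before compound.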",
  "data": [
    {"target": "human ether-à-go-go-related gene (hERG) potassium channel (human, UniProt Q12809)", "sequence (Q12809 whole entry, looked up)": "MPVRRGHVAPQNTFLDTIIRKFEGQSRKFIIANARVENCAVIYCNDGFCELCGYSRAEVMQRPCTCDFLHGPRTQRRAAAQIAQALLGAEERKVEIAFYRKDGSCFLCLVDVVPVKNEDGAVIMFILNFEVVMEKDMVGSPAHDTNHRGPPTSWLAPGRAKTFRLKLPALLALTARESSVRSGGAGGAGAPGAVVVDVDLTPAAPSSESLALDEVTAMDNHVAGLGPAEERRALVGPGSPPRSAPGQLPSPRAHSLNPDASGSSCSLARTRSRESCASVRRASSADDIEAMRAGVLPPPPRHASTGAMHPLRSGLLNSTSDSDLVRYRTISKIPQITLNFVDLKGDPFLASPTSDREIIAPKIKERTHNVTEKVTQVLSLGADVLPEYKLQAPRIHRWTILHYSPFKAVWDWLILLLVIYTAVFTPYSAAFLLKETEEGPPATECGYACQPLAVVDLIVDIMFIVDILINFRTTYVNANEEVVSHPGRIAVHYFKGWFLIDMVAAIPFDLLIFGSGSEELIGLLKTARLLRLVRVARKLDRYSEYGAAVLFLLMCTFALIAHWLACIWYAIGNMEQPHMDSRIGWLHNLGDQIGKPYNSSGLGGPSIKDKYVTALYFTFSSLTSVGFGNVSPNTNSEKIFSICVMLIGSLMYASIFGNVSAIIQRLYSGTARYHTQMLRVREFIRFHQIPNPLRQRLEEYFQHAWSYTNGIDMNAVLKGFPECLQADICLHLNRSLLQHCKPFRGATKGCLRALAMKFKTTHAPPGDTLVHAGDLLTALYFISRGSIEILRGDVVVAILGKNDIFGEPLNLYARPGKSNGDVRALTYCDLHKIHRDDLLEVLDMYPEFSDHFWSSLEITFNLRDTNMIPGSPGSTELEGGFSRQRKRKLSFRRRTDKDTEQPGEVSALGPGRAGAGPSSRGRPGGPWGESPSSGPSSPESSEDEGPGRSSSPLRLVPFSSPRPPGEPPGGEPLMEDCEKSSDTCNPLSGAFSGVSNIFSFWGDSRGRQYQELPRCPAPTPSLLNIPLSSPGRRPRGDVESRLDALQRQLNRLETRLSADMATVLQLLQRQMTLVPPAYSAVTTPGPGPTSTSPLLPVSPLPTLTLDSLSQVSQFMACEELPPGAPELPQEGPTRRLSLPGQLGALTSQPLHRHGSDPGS", "assay": "primary screen, population patch clamp on CHO cells stably expressing hERG", "units": {"hERG current change (%, negative = inhibition) at 10uM": "%"}, "values": [
      {"smiles": "CCc1c(C)[nH]c(=S)c(C#N)c1C", "hERG current change (%, negative = inhibition) at 10uM": 13.8},
      {"smiles": "CCCC1Oc2ccccc2C(=O)N(CC(=O)c2ccc3c(c2)OCCO3)C1=O", "note": "(centres unmarked)", "hERG current change (%, negative = inhibition) at 10uM": 14.1},
      {"smiles": "CC(C)Cc1ccc(CN2CCCC(NC(=O)c3cccc(-n4cnnc4)c3)C2)cc1", "note": "(centres unmarked)", "hERG current change (%, negative = inhibition) at 10uM": -81},
      {"smiles": "Cc1ccc2nc(N3C(=O)C(O)=C(C(=O)c4ccco4)C3c3cccs3)sc2c1.O=C(O)C(=O)O", "note": "(centres unmarked)", "hERG current change (%, negative = inhibition) at 10uM": -5},
      {"smiles": "CC(=O)Oc1cc2c(C(C)=O)coc2c2ccccc12", "hERG current change (%, negative = inhibition) at 10uM": -1.54},
      {"smiles": "O=C(CCc1ccccc1)NNC(=O)COc1ccc(Br)cc1", "hERG current change (%, negative = inhibition) at 10uM": 26.6},
      {"smiles": "O=C(Nc1ccc(S(=O)(=O)Nc2ncccn2)cc1)c1ccc(Cl)c([N+](=O)[O-])c1", "hERG current change (%, negative = inhibition) at 10uM": 12.6},
      {"smiles": "O=C(c1cccc(-c2ccccc2)c1)N1CC[C@@H](N2CCC(O)CC2)[C@H](O)C1", "hERG current change (%, negative = inhibition) at 10uM": -16.2},
      {"smiles": "CCOC(=O)c1c(-c2cccs2)csc1NC(C)=O", "hERG current change (%, negative = inhibition) at 10uM": -1.29},
      {"smiles": "CCOC(=O)C1=C(N)OC2=C(C(=O)CC(C)(C)C2)C1c1cccs1", "note": "(centres unmarked)", "hERG current change (%, negative = inhibition) at 10uM": -11.6},
      {"smiles": "CC(Nc1nc(N2CCCC2)nc2ccccc12)c1ccccc1", "note": "(centres unmarked)", "hERG current change (%, negative = inhibition) at 10uM": -79.2},
      {"smiles": "COc1ccc(CN2CCN(C(=O)C3CCN(S(=O)(=O)c4cccs4)CC3)CC2)c(OC)c1OC", "hERG current change (%, negative = inhibition) at 10uM": -5.17},
      {"smiles": "CC(C)N(Cc1cnn(C)c1)C(=O)c1ccc(OC2CCN(Cc3ccccn3)CC2)cc1", "hERG current change (%, negative = inhibition) at 10uM": 7.84},
      {"smiles": "COC(=O)c1ccc(CSc2nc3ccc(C)cc3[nH]2)o1", "hERG current change (%, negative = inhibition) at 10uM": 3.55},
      {"smiles": "O=C(O)/C=C/c1cn(-c2ccccc2)nc1-c1cccc([N+](=O)[O-])c1", "hERG current change (%, negative = inhibition) at 10uM": 18},
      {"smiles": "Cc1ccc2[nH]c(C(=O)N/N=C/c3ccccc3C(=O)O)c(-c3ccccc3)c2c1", "hERG current change (%, negative = inhibition) at 10uM": 7.67},
      {"smiles": "Cc1nn(CCOc2cccc(Cl)c2)c(C)c1[N+](=O)[O-]", "hERG current change (%, negative = inhibition) at 10uM": 25.7},
      {"smiles": "CC[C@H](NC(=O)c1c(C)c(-c2ccccc2)nc2ccccc12)c1ccccc1", "hERG current change (%, negative = inhibition) at 10uM": 19.1},
      {"smiles": "COc1ccc(OC)c(-c2csc(N(C)C(=O)c3ccco3)n2)c1", "hERG current change (%, negative = inhibition) at 10uM": 3.36},
      {"smiles": "COCCN(C(=O)Nc1ccccc1)C(C)c1cccnc1", "note": "(centres unmarked)", "hERG current change (%, negative = inhibition) at 10uM": 6.61},
      {"smiles": "N#CC1(NC(=O)CSc2nnc(C3CC3)n2C2CC2)CCCCC1", "hERG current change (%, negative = inhibition) at 10uM": -8.52},
      {"smiles": "CN(C)S(=O)(=O)Nc1ccc(NS(=O)(=O)N(C)C)c(S(=O)(=O)c2ccccc2)c1", "hERG current change (%, negative = inhibition) at 10uM": -3.79},
      {"smiles": "CC(=O)NCCc1c(C)n(Cc2ccccc2)c2ccccc12", "hERG current change (%, negative = inhibition) at 10uM": -4.31},
      {"smiles": "Cc1cc(CCN2CCC(=O)NC2=S)ccc1OC(C)C", "hERG current change (%, negative = inhibition) at 10uM": -3.4},
      {"smiles": "COc1cc(NC(=O)CCCc2c[nH]c3ccccc23)cc(OC)c1", "hERG current change (%, negative = inhibition) at 10uM": 3.51},
      {"smiles": "CCCOC(=O)CC1C(=O)NCCN1Cc1ccc(F)cc1", "note": "(centres unmarked)", "hERG current change (%, negative = inhibition) at 10uM": 3.35},
      {"smiles": "O=C(Nc1ccc(-c2csc(Nc3cccc(C(F)(F)F)c3)n2)cc1)c1ccccc1", "hERG current change (%, negative = inhibition) at 10uM": 18.7},
      {"smiles": "COc1ccc(-n2cnc3cc(C(=O)N4CCOCC4)ccc32)cc1", "hERG current change (%, negative = inhibition) at 10uM": -15.6},
      {"smiles": "COC(=O)c1ccc(CSc2nnc(N)s2)cc1", "hERG current change (%, negative = inhibition) at 10uM": -4.61},
      {"smiles": "COC(=O)CNC(=O)c1ccc(F)cc1", "hERG current change (%, negative = inhibition) at 10uM": 15.1},
      {"smiles": "N=c1c(S(=O)(=O)c2ccc(Cl)cc2)cc2c(=O)n3ccccc3nc2n1CCc1ccccc1", "hERG current change (%, negative = inhibition) at 10uM": 4.68},
      {"smiles": "COc1ccc(CNC(=O)CCCC2=NS(=O)(=O)c3ccccc3N2)cc1", "hERG current change (%, negative = inhibition) at 10uM": 23.5},
      {"smiles": "O=C(NC(=S)NNC(=O)c1ccccc1O)c1cccnc1", "hERG current change (%, negative = inhibition) at 10uM": 23.1},
      {"smiles": "COc1ccccc1OCCCOc1c(Cl)cc(C)cc1Cl", "hERG current change (%, negative = inhibition) at 10uM": 19.2},
      {"smiles": "Cc1ccnn1CC(=O)N/N=C/c1ccco1", "hERG current change (%, negative = inhibition) at 10uM": -7.8},
      {"smiles": "O=C(NC1CCSc2ccccc21)c1cccc([N+](=O)[O-])c1", "note": "(centres unmarked)", "hERG current change (%, negative = inhibition) at 10uM": -21.1},
      {"smiles": "CC(NC(=S)Nc1ccc(F)cc1)C(c1cccs1)N1CCOCC1", "note": "(centres unmarked)", "hERG current change (%, negative = inhibition) at 10uM": -0.917},
      {"smiles": "Cc1cc(Br)cc(C)c1NC(=O)c1ccc(C#N)cc1F", "hERG current change (%, negative = inhibition) at 10uM": -21.2},
      {"smiles": "Cc1ccc(/C=N/NC(=O)CSc2nc3ccccc3[nH]2)o1", "hERG current change (%, negative = inhibition) at 10uM": -3.01},
      {"smiles": "Cc1cnc(C(=O)OCc2ccc(C#N)cc2)cn1", "hERG current change (%, negative = inhibition) at 10uM": -12.5},
      {"smiles": "CCn1c(SCC(=O)NNC(=O)Cc2ccccc2)nnc1-c1ccccc1", "hERG current change (%, negative = inhibition) at 10uM": -10.2},
      {"smiles": "COc1ccc(N2CCN(CC(O)COC(c3ccccc3)c3ccccc3)CC2)cc1", "note": "(centres unmarked)", "hERG current change (%, negative = inhibition) at 10uM": -64.9},
      {"smiles": "O=C(O)CN1C(=O)/C(=C\\c2cccc(OCc3ccc(Cl)cc3)c2)SC1=S", "hERG current change (%, negative = inhibition) at 10uM": 18.2},
      {"smiles": "O=c1c2ccccc2cnn1CCOc1ccccc1", "hERG current change (%, negative = inhibition) at 10uM": 5.4}
    ]}
  ]
}
